{"source": "the supplement of paper PMC10338343", "note": "± gives the standard deviation. The full ranking holds about 3,000 sequences; the median of “pre-steady-state target cleavage rate” is about 0.0079, and the highest 2% start at about 0.2. Only a part is listed here, and it is no random draw."}
{"system": "MILI (PIWIL2) piRISC loaded with piRNA #2 (26 nt)", "experiment": "pre-steady-state target cleavage rate (min^-1); MIWI and MILI are mouse PIWI proteins and EfPiwi is from a freshwater sponge; tags in brackets are library labels; higher = faster piRNA-guided slicing of the target", "settings": "guide: piRNA #2 5'p-UUAGGUAACCCAGUAGAUCCAGAGGA; auxiliary factor: 500 nM mouse GTSF1", "in_short": "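Cleave-'n-Seq reactions paired 0.1 nM transcribed, DNA-blocked target RNA library with 1 nM active affinity-purified piRISC holding one synthetic guide, plus or minus 500 nM GTSF1 partner protein, in HEPES–potassium acetate buffer at 33 °C for 0–8 or 0–960 min. After sequencing of uncleaved targets and normalisation to depth and weakly complementary targets, the pre-steady-state cleavage rate was taken from a burst-and-steady-state fit. Three trials were pooled, and k3 was capped at 0.0001 min^-1.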"}
{"sequence": "CUUAUCACUCUGGAUCUACUGGGUUACCUAA", "pre-steady-state target cleavage rate": "0.114 ± 0.03"}
{"sequence": "CUUAAGGAGUGGAUCUAGUGGGUUACCUUA", "pre-steady-state target cleavage rate": "0.0138 ± 0.0059"}
{"sequence": "CUUAAGGAGAGGAUCUACAGGGUUACCUAA", "pre-steady-state target cleavage rate": "0.0177 ± 0.0055"}
{"sequence": "CUUAAGGUCUCGAUCAACUGGGUUACCUAA", "pre-steady-state target cleavage rate": "0.0194 ± 0.0077"}
{"sequence": "CUUAUCCUCUGGAUCUACUGGGUUACCUUAA", "pre-steady-state target cleavage rate": "0.128 ± 0.026"}
{"sequence": "CUUAAGGACUGGUUCUACAGGGUUACCUAA", "pre-steady-state target cleavage rate": "0.044 ± 0.012"}
{"sequence": "CUUAAGCUCUGCAUCUACUGGGUUUCCUAA", "pre-steady-state target cleavage rate": "0.0656 ± 0.022"}
{"sequence": "CUUAUCCUCUUGGAUCUACUGGGUUACCUAA", "pre-steady-state target cleavage rate": "0.19 ± 0.052"}
{"sequence": "CUUAAGGUCUCGAUCUUCUGGGUUACCUAA", "pre-steady-state target cleavage rate": "0.0355 ± 0.011"}
{"sequence": "CUUAACCUCCUGGAUCUACUGGGUUACCUAA", "pre-steady-state target cleavage rate": "0.108 ± 0.025"}
{"sequence": "CUUAACCUCUGGAUCUACACCGUUACCUAA", "pre-steady-state target cleavage rate": "0.00418 ± 0.0037"}
{"sequence": "CUUAACCUCUGGAUCUUCUGGGUUACGUAA", "pre-steady-state target cleavage rate": "0.0345 ± 0.012"}
{"sequence": "CUUAAGCUCUGGAUCAACUGGGUUAGCUAA", "pre-steady-state target cleavage rate": "0.0277 ± 0.0074"}
{"sequence": "CUUAACCUCUGGAUCUACUGGGUUACCAUA", "pre-steady-state target cleavage rate": "0.127 ± 0.027"}
{"sequence": "CUUAUCCUCAGGAUCUUCUGGGUUACCUAA", "pre-steady-state target cleavage rate": "0.0611 ± 0.014"}
{"sequence": "CUUAAGCUCUGGUUCUUCUGGGUUACCUAA", "pre-steady-state target cleavage rate": "0.1 ± 0.023"}
{"sequence": "CUUAAGGAGUGGAUCUACUGGGUUAUCCUAA", "pre-steady-state target cleavage rate": "0.0232 ± 0.0097"}
{"sequence": "CUUAAGCACUGGAUCUACAGGGUUACCUAA", "pre-steady-state target cleavage rate": "0.0967 ± 0.015"}
{"sequence": "CUUAAGCUCUGCAUCUAGUGGGUUACCUAA", "pre-steady-state target cleavage rate": "0.0412 ± 0.0092"}
{"sequence": "CUUAAGCACUGGAUCUACUGGGUUUCCUAA", "pre-steady-state target cleavage rate": "0.0938 ± 0.03"}
{"sequence": "CUUAUCCUCUGGUAUCUACUGGGUUACCUAA", "pre-steady-state target cleavage rate": "1.05 ± 0.33"}
{"sequence": "CUUAAGCUCUGGAUCUACUGGGUUACCUAAA", "pre-steady-state target cleavage rate": "0.0569 ± 0.014"}
{"sequence": "CUUAAGGAGAGGUUCUACUGGGUUACCUAA", "pre-steady-state target cleavage rate": "0.0054 ± 0.0035"}
{"sequence": "CUUAACCUCUGGAUCUACUGGGUUCCCUAA", "pre-steady-state target cleavage rate": "0.179 ± 0.071"}
{"sequence": "CUUAAGGUCUGGAUCUUCUGGGUUUCCUAA", "pre-steady-state target cleavage rate": "0.0147 ± 0.0052"}
{"sequence": "CUUAAGGUCUGGUAGUACUGGGUUACCUAA", "pre-steady-state target cleavage rate": "0.0114 ± 0.0091"}
{"sequence": "CUUAAGGAGUGGAUCUACUGGGGUACCUAA", "pre-steady-state target cleavage rate": "0.0109 ± 0.0048"}
{"sequence": "CUUAAGGAGACCUACUACUGGGUACCUAA", "pre-steady-state target cleavage rate": "< 0.0001"}
{"sequence": "CUUAAGCUCUGGAAGUACUGGGUUACCUAA", "pre-steady-state target cleavage rate": "0.0778 ± 0.015"}
{"sequence": "CUUAAGCUCUGCAUCUACUGGGAUACCUAA", "pre-steady-state target cleavage rate": "0.0314 ± 0.011"}
{"sequence": "CUUAACCUCUGGAUCUAGUGGGUUACGUAA", "pre-steady-state target cleavage rate": "0.0297 ± 0.01"}
{"sequence": "CUUAAGCUCUGGAUCUACUGGGUAACCUAA", "pre-steady-state target cleavage rate": "0.0543 ± 0.014"}
{"sequence": "CUUAAGCUGUGGAUCUACUGGGUUACCUAA", "pre-steady-state target cleavage rate": "0.0553 ± 0.018"}
{"sequence": "CUUAUCCAGAGGAUCUACUGGGUUACCUAA", "pre-steady-state target cleavage rate": "0.0096 ± 0.0041"}
{"sequence": "CUUAUCUCUGGAUCUACUGGGUUACCUAA", "pre-steady-state target cleavage rate": "0.0751 ± 0.02"}
{"sequence": "CUUAAGGACUGGAUCUACUGGGUUACCUUAA", "pre-steady-state target cleavage rate": "0.0243 ± 0.014"}
{"sequence": "CUUAAGGUCUGGAUGUUCUGGGUUACCUAA", "pre-steady-state target cleavage rate": "0.0416 ± 0.018"}
{"sequence": "CUUAACCUCUGGAUCUACUGGAGUUACCUAA", "pre-steady-state target cleavage rate": "0.00448 ± 0.0032"}
{"sequence": "CUUAUCCUGUGCAUCUACUGGGUUACCUAA", "pre-steady-state target cleavage rate": "0.194 ± 0.038"}
{"sequence": "CUUAACCUGUGGAUCUACAGGGUUACCUAA", "pre-steady-state target cleavage rate": "0.0832 ± 0.013"}
{"sequence": "CUUAACCUCUGAAUCUACUGGGUUACCUAA", "pre-steady-state target cleavage rate": "0.0822 ± 0.02"}
{"sequence": "CUUAUCCUCUGGAUCUACUGCGUUACGUAA", "pre-steady-state target cleavage rate": "0.00432 ± 0.0032"}
{"sequence": "CUUAACCUCUGGAUCUACUGGGUUACAUAA", "pre-steady-state target cleavage rate": "0.084 ± 0.018"}
{"sequence": "CUUAUCCUCUGGAUCUAGUGGGUUACCUUA", "pre-steady-state target cleavage rate": "0.0726 ± 0.012"}
{"sequence": "CUUAAGCUCUGGAUCGUACUGGGUUACCUAA", "pre-steady-state target cleavage rate": "0.00558 ± 0.0047"}
{"sequence": "CUUAAGCUCUGGAUCUACUGGGUUACGAUA", "pre-steady-state target cleavage rate": "0.0629 ± 0.012"}
{"sequence": "CUUAUCCACUGGAUCUUCUGGGUUACCUAA", "pre-steady-state target cleavage rate": "0.0694 ± 0.012"}
{"sequence": "CUUAAGGUCUGGAUCUUGAGGGUUACCUAA", "pre-steady-state target cleavage rate": "0.00395 ± 0.0035"}
{"sequence": "CUUAUCCUCUGGAUCCACUGGGUUACCUAA", "pre-steady-state target cleavage rate": "0.0964 ± 0.022"}
{"sequence": "CUUAUCCCCUGGAUCUACUGGGUUACCUAA", "pre-steady-state target cleavage rate": "0.137 ± 0.019"}
{"sequence": "CUUAAGGUCUGGAUCAACUGGGUUUCCUAA", "pre-steady-state target cleavage rate": "0.0239 ± 0.01"}
{"sequence": "CUUAAGCUCUCGAUCUACUGGGUUACGUAA", "pre-steady-state target cleavage rate": "0.045 ± 0.015"}
{"sequence": "CUUAAGCUCUGGAUCUACUGGGUUUCCUAA", "pre-steady-state target cleavage rate": "0.107 ± 0.025"}
{"sequence": "CUUAAGGACUGGAUCUACUGGGUGUACCUAA", "pre-steady-state target cleavage rate": "0.0181 ± 0.012"}
{"sequence": "CUUAAGGUCUGGAUCUACUGGGAUACCUAA", "pre-steady-state target cleavage rate": "0.0278 ± 0.0093"}
{"sequence": "CUUAACCUCUGGAUAUACUGGGUUACCUAA", "pre-steady-state target cleavage rate": "0.158 ± 0.031"}
{"sequence": "CUUAAGGAGUGGUUCUACUGGGUUUCCUAA", "pre-steady-state target cleavage rate": "0.00611 ± 0.0051"}
{"sequence": "CUUAAGGAGUGGAUCAACUGGGUUACCUAA", "pre-steady-state target cleavage rate": "0.0147 ± 0.0066"}
{"sequence": "CUUAAGGAGACCAUCUACUGGUUACCUAA", "pre-steady-state target cleavage rate": "< 0.0001"}
{"sequence": "CUUAAGCUCUGGAUCUUCUGGGUUACCAAA", "pre-steady-state target cleavage rate": "0.0509 ± 0.017"}
{"sequence": "CUUAAGCACUGGAUCUAGUGGGUUACCUAA", "pre-steady-state target cleavage rate": "0.0804 ± 0.013"}
{"sequence": "CUUAACCUCUGGAUGUACUGGGAUACCUAA", "pre-steady-state target cleavage rate": "0.0398 ± 0.017"}
{"sequence": "CUUAACCUACUGGAUCUACUGGGUUACCUAA", "pre-steady-state target cleavage rate": "0.101 ± 0.021"}
{"sequence": "CUUAAGGUCUGGCUCUACUGGGUUACCUAA", "pre-steady-state target cleavage rate": "0.0939 ± 0.016"}
{"sequence": "CUUAACCUCUGGAUCUACUGGGUUACCGUAA", "pre-steady-state target cleavage rate": "0.103 ± 0.032"}
{"sequence": "CUUAUCCUCUGGAUCUACUGGGUUACCGUAA", "pre-steady-state target cleavage rate": "0.0831 ± 0.02"}
{"sequence": "CUUAACGUCUGGAACUACUGGGUUACCUAA", "pre-steady-state target cleavage rate": "0.103 ± 0.016"}
{"sequence": "CUUAACCUCUCGAUCUACUGGGUUAGCUAA", "pre-steady-state target cleavage rate": "0.0663 ± 0.025"}
{"sequence": "CUUAAGCUCUCGAUCUACUGGGUUACCAAA", "pre-steady-state target cleavage rate": "0.119 ± 0.032"}
{"sequence": "CUUAAGGUCUGGAUCUACUGCGUUACCUAA", "pre-steady-state target cleavage rate": "0.0106 ± 0.0049"}
{"sequence": "CUUAACCCCUGGAUCUACUGGGUUACCUAA", "pre-steady-state target cleavage rate": "0.0999 ± 0.017"}
{"sequence": "CUUAUCCUCUGGAUCUAGUGCGUUACCUAA", "pre-steady-state target cleavage rate": "0.00427 ± 0.0028"}
